Data from PubChem BioAssay AID759 (NMMLSC, 2007).
About 270 (0.14%) of roughly 190,000 compounds were called active. The inconclusive results got no clear call from the source; some entries with a clear call stand among them for comparison.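 Rule for the calls: active = GTP binding activity at least 20% away from the 100% baseline, either lowered as inhibitor or raised as activator; inconclusive = flagged as likely green fluorescent, judged across all proteins in the well; inactive = the rest.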

Target: GTPase HRas (Homo sapiens) (UniProt P01112)
Assay: HRas wt fluorescent GTP binding changes, either direction – biochemical, wildtype, bead-based flow cytometry, multiplex, primary screen (AID 759);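 note: 0% = unlabeled GTP competition control and 100% = no-compound control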
Details: GST-Ras wt beads, Bodipy-FL-GTP binding, at 10 µM, actives lie on both sides

Chain of UniProt P01112 (P01112 whole entry, looked up): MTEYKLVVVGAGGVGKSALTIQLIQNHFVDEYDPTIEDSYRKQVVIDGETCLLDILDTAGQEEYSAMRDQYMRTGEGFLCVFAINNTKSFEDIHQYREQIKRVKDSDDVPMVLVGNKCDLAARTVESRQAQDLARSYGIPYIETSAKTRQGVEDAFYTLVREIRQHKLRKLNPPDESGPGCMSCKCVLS

| Structure (SMILES) | GTP binding activity |
| --- | --- |
| Cc1ccc(N(CC(O)CN2CCCC2)S(=O)(=O)c2ccc(C)cc2)cc1 (configuration not stated) | inconclusive: 103% |
| CN(C(=O)Cc1c(C(=O)O)n(C)c2ccccc12)c1ccc(F)cc1 | inactive: 97% |
| CC(=O)c1cccc(NC(=O)C(=O)c2cn(CC(=O)N3CCCCC3)c3ccccc23)c1 | inconclusive: 94% |
| Nc1nc(SCC(=O)Nc2ccccc2)nc2nc3c(cc12)CCCC3 | inconclusive: 92% |
| CNc1c([N+](=O)[O-])cnn1-c1cccc(Cl)n1 | inactive: 95% |
| CC(=O)Nc1ccnc(-c2cccnc2)n1 | inactive: 96% |
| CCCCCC(=O)N1CC2(C)CN(C(=O)CCCCC)CC(C)(C1)C2=O | inconclusive: 105% |
| C/C(=N\NC(=O)c1c[nH]c2ccccc12)c1ccc(C)o1 | inactive: 84% |
| COc1ccc(C(CC(=O)O)NC(=O)c2cc3cc(Br)ccc3oc2=O)cc1OC (configuration not stated) | inactive: 83% |
| CC(=O)OCC(=O)NCC(=O)c1c[nH]c2ccccc12 | inactive: 103% |
| CC(=O)Nc1ccc(S(=O)(=O)NCCSCc2c(Cl)cccc2Cl)cc1 | inconclusive: 101% |
| CC(=O)Nc1ccc(S(=O)(=O)Nc2nc3ccccc3nc2-n2ccc(=NC(=O)c3ccc(F)cc3)cc2)cc1 | inactive: 99% |
| CCCn1cc(CN2CCCC(CNC(=O)c3ccc(F)cc3)C2)c(C)n1 (configuration not stated) | inconclusive: 127% |
| Cc1ccccc1S(=O)(=O)NC1OC(=O)C(Cl)=C1Cl (configuration not stated) | inconclusive: 91% |
| Cc1cccc(NC(=O)CCc2ccccc2)c1 | inconclusive: 103% |
| COc1ccc(-c2cc(C#N)nc(N3CCNCC3)n2)cc1 | active: 125% [activator] |
| O=C(CCc1ccccc1)Nc1nc2nc(-c3ccccc3)cc(=O)n2[nH]1 | inconclusive: 96% |
| Cc1ccc(NC(=O)C2CCCCC2C(=O)O)cc1Cl (configuration not stated) | inconclusive: 83% |
| O=C(COc1ccccc1C(=O)Nc1ccccc1)c1ccc(Br)cc1 | inconclusive: 93% |
| Nc1ccc(-c2nc3ccc(N)cc3[nH]2)cc1 | inconclusive: 93% |
| O=C(Nc1cccn(Cc2c(Cl)cccc2Cl)c1=O)c1c(Cl)cccc1Cl | inconclusive: 105% |
| Cn1c(=O)c2c(ncn2CC(=O)OCC(=O)Nc2ccccc2)n(C)c1=O | inactive: 94% |
| COc1cc(/C=N/NC(=O)CCc2c(C)n[nH]c2C)ccc1O | inconclusive: 103% |
| CCc1ccc(NC(=O)CSc2nnc(SCC(=O)Nc3ccc(CC)cc3)n2N)cc1 | inconclusive: 101% |

| Structure (SMILES) | GTP binding activity |
| --- | --- |
| N=c1n(CCN2CCCC2)c2ccccc2n1CC(O)c1ccco1 (configuration not stated) | inconclusive: 105% |
| Cc1ccc(C(=O)N2CCOCC2)cc1Cl | inconclusive: 92% |
| CS(=O)(=O)N(CC(=O)Nc1c(F)cccc1F)c1ccc(C23CC4CC(CC(C4)C2)C3)cc1 | inconclusive: 108% |
| COc1cc(/C=C2\SC(=Nc3ccc(O)cc3)NC2=O)cc(OC)c1O | inactive: 84% |
| CCn1c(C)nc2cc(C(=O)NNC(=O)c3ccc(Cl)nc3)ccc21 | inconclusive: 93% |
| Cc1ccc(S(=O)(=O)N(C)CC(=O)N2CCN(C(=O)c3ccco3)CC2)cc1 | inconclusive: 102% |
| O=C(OCC1O[C@@H](OC(=O)c2cc(O)c(O)c(O)c2)[C@@H](OC(=O)c2cc(O)c(O)c(O)c2)[C@@H](OC(=O)c2cc(O)c(O)c(O)c2)[C@@H]1OC(=O)c1cc(O)c(O)c(O)c1)c1cc(O)c(O)c(O)c1 (some centres not stated) | active: 79% |
| COc1ccc(S(=O)(=O)Nc2cc3c(cc2C(C)=O)OCO3)cc1 | inactive: 93% |
| CC(C)NC(=O)COC(=O)c1ccccc1C(=O)c1ccccc1 | inconclusive: 93% |
| COc1ccc2c(CC(=O)Nc3nccs3)coc2c1 | inactive: 98% |
| O=C(COC(=O)c1ccc(O)cc1)Nc1ccc(Cl)cc1 | inactive: 95% |
| CCOc1ccc(S(=O)(=O)NC(C)C)cc1C(N)=O | inactive: 99% |
| Cc1nc2ccc(Cl)cc2c(-c2ccccc2Cl)c1CC(=O)O | inactive: 90% |
| Cc1nn(-c2ccc(Cl)cc2Cl)c(C)c1C(=O)O | inconclusive: 96% |
| O=C(NC1CCCCCC1)c1cc(=O)[nH]c2ccc(S(=O)(=O)N3CCOCC3)cc12 | inactive: 96% |
| CCOC(=O)N1CCC(N2Cc3cccc(C(=O)Nc4ccc(F)cc4)c3C2=O)CC1 | inconclusive: 90% |
| Cc1nnc2ccc(-c3cccc(NC(=O)c4ccco4)c3)nn12 | active: 65% |
| COc1ccccc1C(=O)N=Nc1c(O)[nH]c2ccc([N+](=O)[O-])cc12 | active: 53% |
| COc1cc(/C=N/Nc2nc(C)nc3c2cnn3-c2ccccc2)ccc1O | inactive: 83% |
| CCCn1c(=N)n(CC(O)COc2cccc(C)c2)c2ccccc21 (configuration not stated) | inconclusive: 102% |
| O=C(O)CC/C(=N/Nc1ncc(C(F)(F)F)cc1Cl)C(=O)O | inactive: 100% |
| Cc1cc2c(C)c(C)c(=O)[nH]c2cc1N | inactive: 99% |
| COc1ccc(OC)c(C2CC(=O)Nc3n[nH]c(-c4ccccc4)c32)c1 (configuration not stated) | inconclusive: 94% |
